Here are results for 66 compounds from PubChem BioAssay (NCI).

Each structure is given as a SMILES string.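 Briefly, cells in 96-well plates were exposed to five compound concentrations for 48 h, and endpoints were estimated by linear interpolation. GI50 is the concentration that inhibits growth by half. TGI is the concentration that stops growth completely.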 Square brackets hold non-standard residues; d marks the D form. Peptide text beside a SMILES is read from it. * marks the point of attachment. ξ: configuration not given here. ξF = NC(Cc1ccccc1)C(=O)O; Cbz = O=C(OCc1ccccc1)*; Aib = CC(C)(N)C(=O)O Some results are limits rather than exact numbers.

In this assay the test system is NCI-H322M lung. Kind of assay: NCI tumour cell line growth inhibition, 48 h.
On to `COC(=O)C(C)(C)NC(=O)C(Cc1ccccc1)NC(=O)C(C)(C)NC(=O)OCc1ccccc1` (stereo not drawn) (Cbz-[Aib]-[ξF]-[Aib]-OMe), for which the TGI was greater than 100 µM. On the same count and under the same terms, as for `Cc1ccc(/C=C2\CCCC(CN(C)C)C2=O)cc1` (stereo not drawn), the figure is 28.4 µM.

`O=[N+]([O-])c1ccccc1C=NC12CC3CC(CC(C3)C1)C2` registered a TGI greater than 100 µM.

Turning to `N=C(N)c1ccc(NCCOCCNc2ccc(C(=N)N)cc2)cc1`, the GI50 was greater than 100 µM and the TGI was greater than 100 µM. For the compound `O=C(O)C1(Cc2ccc3c(c2)CCC3)Cc2ccccc2C1`, the TGI was greater than 100 µM. On the same count and under the same terms, to `C/C(=N\NC(=S)N1CCCCCCCCCCCC1)c1ccccn1` belongs 1.73 µM; to `COC(=O)C1C=NNC1C(=O)OC` (stereo not drawn), greater than 100 µM. Regarding `CC1(S)CC2C(CC1Sc1ccccc1)C2(C)C` (stereo not drawn), the TGI was greater than 100 µM.

Turning to `COc1ccc2c(Cl)cc(NC(=O)Nc3c(C)cccc3C)nc2c1`, the GI50 is 48.7 µM and the TGI is greater than 100 µM. Take `Cc1cnc2c(c1)C(=O)C1=C(OC(C)(C)CC1O)C2=O` (stereo not drawn): the TGI stood at 28.5 µM.

Take `O=C(Cc1nc2ncccc2[nH]c1=O)c1c[nH]c2ccccc12`: the TGI was 51.7 µM. As to `O=C1N[C@@H]2c3c(Br)sc(Br)c3C(=O)[C@@H]2O1`, the TGI was 21.9 µM.

Compound `CCN(CC)c1ccc2cc(-c3nnc(-c4ccccc4O)o3)c(=O)oc2c1` yielded a TGI of 30.3 µM. For `O=C1NC(N2CCCCC2)=N/C1=C\c1ccccc1O`, the TGI was greater than 100 µM. On the same count and under the same terms, as for `O=c1c(Br)cc2c(-c3ccccc3)c3cc(Br)c(O)c(Br)c3oc-2c1Br`, the figure is greater than 100 µM; as for `CC1(C)C(=O)/C=C\C(=O)C(C)(C)C(=O)/C=C\C(=O)C(C)(C)C(=O)/C=C\C(=O)C(C)(C)C(=O)/C=C\C1=O`, greater than 82.8 µM. On the same count and under the same terms, to `CCOc1ccc(N=NS(=O)(=O)O)cc1` belongs greater than 100 µM; to `O=C1c2ccccc2CC12Cc1ccccc1C2`, greater than 100 µM. `CCCCC(=O)N/N=C/c1c(O)ccc2ccccc12`: the GI50 is 0.568 µM and the TGI is greater than 22.8 µM. Compound `Cc1sc(C)c2c1C(=O)CC2N` (stereo not drawn) displayed a TGI greater than 100 µM. The same measure, in the same setting: to `NC(N)=Nc1nc2ccc([N+](=O)[O-])cc2[nH]1` belongs greater than 100 µM; to `CCOC(=O)C1=C(C)N(NC(N)=O)C(C)(O)C12CCOC2=O` (stereo not drawn), greater than 100 µM. On the same count and under the same terms, as for `C=CC1(NS(=O)(=O)c2ccc(C)cc2)CCC(C(C)(C)C)CC1` (stereo not drawn), the figure is greater than 100 µM; as for `N#Cc1nc(-c2ccccn2)oc1N`, greater than 100 µM. For `CN(C)CC(C(=O)Cc1ccccc1)c1ccccc1` (stereo not drawn), the GI50 is 12.3 µM and the TGI came to 26.6 µM.

Turning to `CC1=CC(C)C(C)N(CCNS(=O)(=O)c2ccc(C)cc2)c2ccccc21` (stereo not drawn), the TGI is greater than 31.6 µM. The same measure, in the same setting: to `Cc1ccc(N=NN(C)C(=O)C(C)N)cc1` (stereo not drawn) belongs greater than 100 µM.

Compound `O=c1[nH]nc(Cn2c3ccc(Br)cc3c3nc4ccccc4nc32)n1C1CCCCC1` showed a TGI greater than 100 µM.

The compound `CC1(C)C2CC3C4CC5(Nc6ccccc6C5N41)[C@]3(C)CC2=O` (stereo partly drawn) gave a TGI greater than 50 µM.

For `CC(=O)[CH-]C(=O)c1ccccc1.CC(=O)[CH-]C(=O)c1ccccc1.Cl.[O-]c1ccccn1.[O-]c1ccccn1.[Ti+4]`, the GI50 is greater than 100 µM and the TGI is greater than 100 µM. As for `C(=N\OCCc1ccccc1)/c1cccnc1`, the TGI is greater than 100 µM. Still for that read-out and setting: to `Fc1cccc(Cl)c1C1SCc2nc3cc4ccccc4cc3n21` (stereo not drawn) belongs greater than 100 µM; to `CCCCCCOc1ccc(C(=O)N(C)O)cc1`, greater than 100 µM. `CC1Cc2cc(O)c(O)cc2-c2cc(O)c(O)cc2CC1C` (stereo not drawn): the TGI was 48.4 µM. The same measure, in the same setting: as for `COc1ccc(/C=C2\Sc3nnc(CNc4ccc(Cl)cc4)n3N=C2c2cc(F)c(Cl)cc2Cl)cc1OC`, the figure is greater than 100 µM; as for `Cc1ccc(N2CCN(CCC(=O)O)CC2)cc1`, greater than 100 µM. In turn, `COc1ccc(/C(Cl)=C(\c2ccc(OCCN(C)C)cc2)c2ccc(OC(=O)C(C)(C)C)cc2)cc1` yielded a TGI of 28.1 µM. For the compound `O=C(O)CN1CCN(CC(=O)N2CCN(C(=O)OCc3ccccc3)CC2)CCN(CC(=O)O)CCN(CC(=O)N2CCN(C(=O)OCc3ccccc3)CC2)CC1`, the TGI was greater than 100 µM.

With `COc1cc(C2C3=C(COC3=O)Nc3c2ccc2c3CCCC2)cc2c1OCO2` (stereo not drawn), the GI50 was 0.099 µM and the TGI is greater than 100 µM. With `CCOC(=O)c1c(C)nc2c(c1N)CC(=O)N2CCc1ccccc1`, the GI50 was 4.81 µM and the TGI is 18 µM. `O=C1Nc2ccccc2/C1=C\c1nc(C2CCN(S(=O)(=O)c3ccc(F)cc3)CC2)n2ccccc12`: the GI50 is 2.81 µM and the TGI is greater than 100 µM. In turn, `CCCCOCc1cc(CN2CCN(C)CC2)c(O)c2ncccc12` showed a TGI greater than 100 µM.

In turn, `CCOC(=O)c1oc2ccc([N+](=O)[O-])c3c2c1CCC3` yielded a TGI greater than 100 µM. Still for that read-out and setting: to `N#Cc1c(O)cc(=O)n2c1[nH]c1ccccc12` belongs greater than 100 µM; to `CC(C)CC(NC(=O)C(Cc1ccccc1)NC(=O)C(Cc1c[nH]c2ccccc12)NC(=O)CNC(=O)C(N)Cc1ccc(O)cc1)C(=O)O` (stereo not drawn) (H-YGWFL-OH; configuration not given here), greater than 100 µM. As for `CCC(=O)Nc1ccccc1C#C/C=C\C#Cc1ccccc1C(F)(F)F`, the GI50 is 2.94 µM and the TGI was greater than 50 µM.

Consider `O=c1oc2ccc(Cl)cc2cc1-c1cn2ccccc2n1`, for which the TGI was greater than 100 µM.

For the compound `C[C@@H]1C2=CC[C@@]3(C)C(CCC3[C@H](C)[C@H]3C[C@@]4(C)O[C@@](c5cccnc5)(O3)OC4(C)C)[C@@H]2C2OC2[C@@]12CCC(=O)O2` (stereo partly drawn), the TGI is greater than 100 µM. Turning to `C[C@]1(Cn2ccnn2)C(C(=O)O)N2C(=O)CC2S1(=O)=O` (stereo partly drawn), the GI50 is greater than 100 µM and the TGI was greater than 100 µM. The compound `COc1c(-c2ccc(O)c(O)c2)oc2c(O)c(O)cc(O)c2c1=O` returned a TGI greater than 100 µM. Turning to `CN[C@@H](C)[C@H](N)c1ccccc1`, the TGI was greater than 100 µM. On the same count and under the same terms, to `NC(=O)N/N=C(/Cc1nc2ccc(C(=O)c3ccccc3)cc2[nH]c1=O)C(=O)Nc1ccc(C(F)(F)F)cc1[N+](=O)[O-]` belongs greater than 100 µM. In the case of `C/C=C/[C@H]1O[C@@H]2C(=C[C@H]1O)C(=O)O[C@H]2C`, the GI50 is 77.6 µM and the TGI is greater than 100 µM.

Take `COC(=O)[C@]1(c2cc3ccccc3[nH]2)CC2CN(CC(=O)N(C)OC)C1CC2(OC)OC` (stereo partly drawn): the TGI is greater than 100 µM.

On to `O=C(N/N=C/c1ccccc1O)c1ccccc1Nc1ccccc1C(=O)N/N=C/c1ccccc1O`, for which the TGI was greater than 79 µM. The same measure, in the same setting: as for `Clc1ccc2nc(-c3ccccc3)nc(Cl)c2c1`, the figure is greater than 100 µM. `C/C(=N\N=C(\[Se])N(C)C)c1ccccn1` displayed a TGI of 12.2 µM. On the same count and under the same terms, to `Cc1nc2ccc(NC3OC(CO)C(O)C(O)C3O)cc2c(=O)n1-c1ccccc1` (stereo not drawn) belongs greater than 100 µM; to `CNS(=O)(=O)NN(C)S(=O)(=O)c1ccc2ccccc2c1`, greater than 100 µM. Same read-out and setting: as for `Oc1cccc2cc(Br)cnc12`, the figure is greater than 100 µM; as for `Cc1ccn2c(CCc3nnc4cc(C)ccn34)nnc2c1`, greater than 100 µM.

`Cc1ccc(C(O)(c2ccc(C)cc2)c2ccccn2)cc1`: the TGI is greater than 100 µM. On to `CCN(CC)C(=O)N1CCN(C=S)CC1`, for which the TGI was greater than 100 µM.

As to `Cc1ncc([N+](=O)[O-])n1CCNCCCn1ccnc1[N+](=O)[O-]`, the TGI is greater than 100 µM. For `Cc1cc(C(=O)O)c(C)n1-c1cccc(C(=O)O)c1`, the GI50 is greater than 100 µM and the TGI was greater than 100 µM. In turn, `N#Cc1c(Cl)nc2ccccc2c1N=[N+]=[N-]` yielded a TGI of 8.43 µM.
